Reference: the supplement of paper PMC12217912
The list shows a part of the results. The full chains were built here from the parent and the listed change. Inactive controls read about 0.05.

B1: TEV protease; numbered along this chain (parent)
chain: MGESLFKGPRDYNPISSSICHLTNESDGHTTSLYGIGFGPFIITNKHLFRRNNGTLVVQSLHGVFKVKDTTTLQQHLVDGRDMIIIRMPKDFPPFPQKLKFREPQREERICLVTTNFQTKSMSSMVSDTSCTFPSGDGIFWKHWIQTKDGQCGSPLVSTRDGFIVGIHSASNFTNTNNYFTSVPKNFMELLTNQEAQQWVSGWRLNADSVLWGGHKVFMVKPEEPFQPVKEATQL

Variants of: B1
Assay: raw area under fraction-flipped curve 0-4 h after induction (AUC4h, not background-subtracted), DNA-recorder readout of cleavage of the substrate (dimensionless); higher = more cleavage of the substrate by the protease variant
Settings: temperature: 34 °C; time window: 0-4 h after rhamnose induction
Description: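 In vivo DNA recorder in E. coli TOP10(DE3) ΔrhaA at 34 °C. Each TEVp single-site mutant (parent TEVp 0) is paired with a single-site variant of the 7-mer TEVs (canonical ENLYFQ|S). The substrate sits between flexible linkers in a Bxb1-sfGFP-TEVs-SsrA fusion, so cleavage stabilises Bxb1 and speeds flipping of a recombination array, read by NGS. The value is the raw area under the fraction-flipped curve over 0-4 h after rhamnose induction (AUC4h), with ≥20 reads per time point. It is not background-subtracted; inactive controls average about 0.047.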
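Further: Bxb1 expression induced with 0.2% (w/v) L-rhamnose at OD600 near 0.5, cultures sampled hourly, flipped fraction per protease–substrate barcode pair counted by paired-end Illumina sequencing.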

Row | Variant | area with substrate CNLYFQS | area with substrate DNLYFQS | area with substrate FNLYFQS | area with substrate GNLYFQS | area with substrate HNLYFQS | area with substrate INLYFQS | area with substrate KNLYFQS | area with substrate LNLYFQS | area with substrate MNLYFQS | area with substrate PNLYFQS | area with substrate TNLYFQS | area with substrate VNLYFQS | area with substrate WNLYFQS | area with substrate YNLYFQS | area with substrate NNLYFQS | area with substrate RNLYFQS | area with substrate SNLYFQS | area with substrate QNLYFQS
1 | G28I | 0.0617 | 0.0614 | 0.0569 | 0.0643 | 0.0546 | 0.0218 | 0.067 | 0.0571 | 0.0421 | 0.0621 | 0.064 | 0.0668 | 0.0431 | 0.0403 | – | – | – | –
2 | G28D | 0.0489 | 0.0835 | 0.0641 | 0.0498 | 0.0629 | – | 0.0725 | 0.0622 | – | 0.0684 | 0.0628 | 0.0356 | 0.055 | 0.0669 | 0.0604 | 0.0704 | 0.0518 | –
3 | L33I | 0.061 | 0.0655 | 0.068 | 0.0559 | 0.0488 | 0.0658 | – | – | – | 0.0645 | 0.063 | – | 0.0613 | – | – | – | 0.0663 | –
4 | L33M | 0.0458 | 0.0521 | 0.0517 | 0.0592 | 0.0631 | 0.0397 | 0.0699 | 0.0626 | 0.0311 | – | 0.0604 | 0.0552 | 0.0605 | 0.0669 | 0.0587 | – | 0.128 | –
5 | F38I | 0.0788 | 0.0679 | – | 0.0708 | 0.0605 | 0.0541 | 0.0284 | 0.0576 | 0.0434 | 0.0623 | 0.0665 | – | 0.0607 | 0.0582 | – | – | 0.0615 | –
6 | F38Y | 0.0802 | 0.0856 | – | 0.0692 | 0.0662 | 0.0426 | 0.0612 | 0.0687 | – | 0.071 | 0.0676 | 0.0653 | 0.0566 | 0.077 | 0.0792 | – | 0.0603 | –
7 | F38C | 0.0738 | 0.076 | 0.0548 | 0.0611 | 0.0609 | – | 0.0549 | – | – | – | 0.0424 | – | 0.0542 | 0.0566 | – | 0.0528 | – | 0.0602
8 | F38W | 0.0661 | 0.119 | 0.0679 | 0.103 | 0.0658 | 0.0784 | 0.0496 | 0.0665 | 0.0672 | 0.0587 | 0.0751 | 0.0649 | 0.0474 | – | 0.0504 | – | 0.0401 | –
9 | T23C | 0.0656 | 0.0562 | 0.0582 | – | 0.0622 | – | 0.0652 | 0.082 | – | 0.0728 | 0.0673 | 0.0924 | 0.0642 | 0.0482 | 0.0504 | – | 0.0752 | 0.0809
10 | T23N | 0.0471 | 0.0596 | 0.06 | 0.0512 | 0.0517 | 0.0564 | 0.0488 | – | – | 0.0633 | 0.0622 | – | 0.0577 | – | 0.0576 | – | 0.074 | 0.0628
11 | T23Y | 0.0645 | 0.0898 | 0.0484 | 0.0763 | 0.0631 | 0.0739 | 0.0575 | 0.0739 | 0.061 | 0.0584 | 0.0848 | 0.0621 | 0.0486 | 0.0493 | 0.0624 | 0.0576 | 0.0616 | 0.0686
12 | T23L | 0.0695 | 0.0848 | 0.0548 | – | 0.0726 | 0.0636 | 0.066 | 0.0714 | 0.0829 | 0.0725 | 0.0651 | 0.0661 | 0.0671 | 0.0756 | 0.0607 | – | 0.0608 | –
13 | T31A | 0.0711 | 0.0938 | 0.054 | 0.0538 | 0.0645 | 0.0607 | – | – | – | 0.0765 | 0.0824 | – | 0.0474 | – | – | – | 0.0628 | –
14 | C20N | 0.0426 | 0.0548 | 0.0444 | 0.0513 | 0.0529 | 0.0399 | 0.0513 | 0.0476 | 0.0531 | 0.0565 | 0.0463 | – | 0.0495 | – | 0.0499 | 0.0677 | 0.0509 | 0.0562
15 | C20Q | 0.0442 | 0.0473 | – | 0.0431 | 0.0422 | 0.0349 | – | 0.0463 | 0.0332 | 0.0488 | – | 0.0447 | 0.0514 | 0.0517 | 0.0472 | – | 0.0468 | 0.0449
16 | I36S | 0.0689 | 0.0576 | 0.0416 | – | 0.0503 | 0.0498 | 0.0521 | 0.0489 | – | 0.0709 | 0.0639 | 0.0514 | 0.049 | 0.0434 | – | – | 0.0679 | –
17 | I36W | 0.0444 | 0.0627 | – | – | 0.0521 | 0.0441 | 0.0623 | – | – | 0.0559 | 0.049 | 0.0461 | 0.0567 | 0.049 | 0.0454 | – | – | –
18 | I36H | 0.0453 | 0.0433 | – | 0.0331 | 0.0512 | 0.0544 | 0.0526 | 0.0309 | 0.0409 | 0.0473 | 0.0463 | 0.0396 | 0.0519 | 0.0282 | 0.0391 | – | – | 0.0481
19 | I36T | 0.0481 | 0.0723 | – | – | 0.0709 | – | – | 0.0649 | 0.0983 | 0.0586 | 0.0558 | – | 0.0574 | 0.0456 | 0.0563 | – | 0.043 | 0.0634
20 | I36Y | 0.0409 | 0.0492 | – | – | 0.0401 | 0.0481 | – | 0.0347 | 0.0574 | – | 0.0388 | 0.0515 | 0.0498 | – | 0.0519 | 0.0443 | – | 0.0477
21 | I36M | 0.0774 | 0.12 | – | 0.0666 | 0.107 | 0.0696 | 0.0731 | 0.0586 | 0.0566 | 0.0714 | 0.0708 | 0.0559 | 0.0608 | 0.0548 | 0.047 | 0.0559 | 0.0592 | –
22 | E25Y | 0.0714 | 0.0777 | 0.0782 | 0.0677 | 0.0805 | 0.0781 | 0.0653 | 0.0702 | 0.0704 | 0.0574 | 0.0652 | 0.064 | 0.0616 | 0.0566 | 0.0756 | 0.0591 | 0.0631 | 0.0586
23 | E25R | 0.061 | 0.0818 | – | – | 0.0689 | 0.0836 | 0.0543 | 0.0901 | 0.0653 | 0.0733 | 0.0606 | 0.0576 | 0.0526 | 0.0581 | 0.0636 | 0.0687 | 0.0592 | –
24 | E25G | 0.0761 | 0.0714 | 0.0545 | 0.0635 | 0.0586 | 0.0437 | 0.0455 | 0.056 | 0.0665 | 0.0665 | 0.0562 | 0.0478 | 0.0488 | 0.0515 | – | – | 0.0572 | 0.0611
25 | E25W | 0.0738 | 0.0721 | – | – | 0.0655 | 0.067 | – | 0.0608 | 0.0414 | 0.0766 | 0.0718 | – | 0.0491 | – | 0.0629 | 0.0622 | – | –
